In PubChem BioAssay AID360 (National Center for Advancing Translational Sciences (NCATS), 2006):
In all, about 48,000 compounds went through this assay and about 550 (1.1%) were called active. Roughly 4% stayed inconclusive and do not appear here. Cut-off read from the data, not from the text of the source: active = potency below about 15 µM; inconclusive = mostly about 16 µM to 33 µM; inactive = weaker than that. Some of the results follow.

Molecular target: Lysosomal acid glucosylceramidase (Homo sapiens) (UniProt P04062)
Test: Glucocerebrosidase;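 note: the screen sought inhibitors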
Conditions: purified enzyme, resorufin glucoside fluorescence (screen aimed at inhibitors), 20 min
How it was run: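 Wild-type enzyme at 0.2 nM final in 50mM citric acid/KH2PO4, 10mM sodium taurocholate, 0.01% tween-20, pH 5.9, with resorufin beta-D-glucopyranoside at 30 uM final. Compounds titrated, 20 min at RT, red fluorescence read; AC50 from titration.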
Potency is the fitted concentration of half-maximal effect.

Sequence of UniProt P04062 (P04062 whole entry, looked up): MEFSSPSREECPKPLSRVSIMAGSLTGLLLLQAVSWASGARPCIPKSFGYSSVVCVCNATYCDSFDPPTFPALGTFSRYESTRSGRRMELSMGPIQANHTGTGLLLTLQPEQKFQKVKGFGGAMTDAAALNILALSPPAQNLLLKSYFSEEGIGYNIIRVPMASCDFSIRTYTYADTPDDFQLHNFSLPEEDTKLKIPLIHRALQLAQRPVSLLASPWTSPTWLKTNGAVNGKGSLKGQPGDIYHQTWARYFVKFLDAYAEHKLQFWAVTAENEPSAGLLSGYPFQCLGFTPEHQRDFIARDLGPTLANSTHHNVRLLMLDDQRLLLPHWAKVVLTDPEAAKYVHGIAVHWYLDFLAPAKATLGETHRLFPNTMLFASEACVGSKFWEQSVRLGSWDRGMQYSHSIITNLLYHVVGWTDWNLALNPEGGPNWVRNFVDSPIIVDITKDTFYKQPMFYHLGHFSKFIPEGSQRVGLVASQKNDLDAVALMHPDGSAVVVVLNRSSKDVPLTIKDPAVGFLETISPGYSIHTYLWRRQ

Potency, inactive:
CCN(CC)C(=O)c1cc(-c2ccccc2OC)on1 > 76.9 µM
NC(=O)CC1(CC(=O)O)CCCCC1 > 76.9 µM
Cc1noc(NS(=O)(=O)c2ccc(N3Cc4ccccc4C3=O)cc2)c1C > 76.9 µM
NC(=O)CSc1nc2scc(-c3ccco3)c2c(=O)n1-c1ccccc1 > 76.9 µM
Cc1ccc(-c2nn3c(-c4ccco4)nnc3c3ccccc23)cc1S(=O)(=O)NCC1CCCO1 (stereo not drawn) > 76.9 µM
NC(=O)c1ccc(-n2nnnc2Oc2ccccc2)cc1 > 76.9 µM
CC(c1ccccc1)N1CC(C(=O)NC2CCCC2)CC1=O (stereo not drawn) > 76.9 µM
CCCCC(=O)Nc1ccc(NC(=O)C2CC2)nc1 > 76.9 µM
Cc1c(C(O)CN2CCN(Cc3ccc4c(c3)OCO4)CC2)c2ccccc2n1C (stereo not drawn) > 76.9 µM
COC(=O)[C@H](Cc1ccccc1)NC(=O)N1CCCCC1C (stereo partly drawn) > 76.9 µM
Cc1cccc(C)c1NS(=O)(=O)c1c(C)[nH]c(=O)[nH]c1=O > 76.9 µM
CC(C(=O)NC1CCCCCC1)N(c1ccccc1)S(C)(=O)=O (stereo not drawn) > 76.9 µM
O=C(CCn1nnc2ccccc21)Nc1nnc(COc2ccc(F)cc2)s1 > 76.9 µM
COc1ccc(-c2nnc3ccc(SCC(=O)NCc4ccco4)nn23)cc1 > 76.9 µM
COc1ccc(C(=O)CSc2nnc(CNC(=O)c3ccc(OC)c(OC)c3)n2C)cc1 > 76.9 µM
CC(Sc1nc(N2CCOCC2)nc(N2CCOCC2)n1)C(=O)Nc1ccccc1 (stereo not drawn) > 76.9 µM
CCn1nnnc1SCC(=O)c1ccc(NC(C)=O)cc1 > 76.9 µM
Cc1ccc(N(CC(=O)N2CCn3c2nc2ccccc23)S(=O)(=O)c2c(C)n[nH]c2C)cc1 > 76.9 µM
COc1ccccc1N1CCN(C(=O)CCNS(=O)(=O)c2ccc3c(c2)CCC(=O)N3)CC1 > 76.9 µM
CC1(C)Cc2ccccc2-c2nnc(-c3cccc(O)c3)n21 > 76.9 µM
CCN(C(=O)Cc1cccs1)c1nnc(-c2cccnc2)s1 > 76.9 µM
CC(C(=O)NCc1ccccc1)N(CCN1CCOCC1)C(=O)c1snc(C(N)=O)c1N (stereo not drawn) > 76.9 µM
COC(=O)CSc1ccccc1C(=O)OC > 76.9 µM
Cc1cc(=O)oc(C)c1C(=O)NCCC(C)C > 76.9 µM
CCn1c(=N)c(C(=O)NCCCOC)cc2c(=O)n3cccc(C)c3nc21 > 76.9 µM
CCC(=O)Nc1sc(C(=O)N2CCCCC2)c(C)c1C#N > 76.9 µM
CC(C)=CC(=O)OCC(=O)NC(=O)NC(C)(C)C > 76.9 µM
COc1nc(-c2ccccc2)cc(C(F)(F)F)n1 > 76.9 µM
O=C(NCc1ccco1)c1ccc(CS(=O)(=O)Cc2ccc(F)cc2)o1 > 76.9 µM
C1CCN(c2nc3nonc3nc2N2CCCC2)C1 > 76.9 µM
CSc1ncccc1C(=O)OCC(=O)N1CCOCC1 > 76.9 µM
O=C(CC1(O)C(=O)N(Cc2ccccc2)c2ccccc21)c1ccncc1 (stereo not drawn) > 76.9 µM
O=C(CSc1nnc(-c2cccnc2)o1)OC1CCCCC1 > 76.9 µM
O=C(O)c1cccc(NS(=O)(=O)c2ccc3nnn(O)c3c2)c1 > 76.9 µM
COc1ccc(N2C(=O)CCC(C(=O)O)C2c2ccc(F)cc2)cc1 (stereo not drawn) > 76.9 µM
Cc1cc(C)n2nnnc2c1C#N > 76.9 µM
Cc1ccc(-c2nn(CC(=O)NCC3CCCO3)c(=O)c3ccccc23)cc1 (stereo not drawn) > 76.9 µM
Cc1nc2nc(C)n(-c3ccccc3)c2s1 > 76.9 µM
CCOc1c(Br)ccc2c1sc1nc[nH]c(=O)c12 > 76.9 µM
O=C1c2ccccc2NC2CCCCC12 (stereo not drawn) > 76.9 µM
O=C1Nc2ccccc2C(O)(C(=O)NCc2ccco2)N1c1ccccc1 (stereo not drawn) > 76.9 µM
COc1ccc(C2(C(=O)NCCCN3CCOCC3)CCOCC2)cc1 > 76.9 µM
COCCNC(=O)C1CC(=O)N(C2CCCC2)C1 (stereo not drawn) > 76.9 µM
O=C(NCc1ccco1)c1cc(S(=O)(=O)N2CCOCC2)c(Cl)cc1Cl > 76.9 µM
O=C(NCc1nc(-c2ccccc2)no1)c1ccc(Br)o1 > 76.9 µM
C=CCNc1nnc(SCC(=O)N2CCCCC2)c2ccccc12 > 76.9 µM
O=C(N1CCOCC1)N1CCN(c2nc(-c3ccccc3)cs2)CC1 > 76.9 µM
COc1ccc(C)cc1NC(=O)CSc1nnc(COc2ccc(C)cc2)n1Cc1ccco1 > 76.9 µM
CCc1nnc(NC(=O)C2CCCN(c3nc(C)cc(C)n3)C2)s1 (stereo not drawn) > 76.9 µM
CCOC(=O)Nc1sc2c(c1C(=O)OCC)CCC2 > 76.9 µM
CCCCc1c(C)c2ccc(OC)c(/C(C)=N\O)c2oc1=O > 76.9 µM
CSCCOC(=O)C1=C(C)NC(=O)CC1c1ccccc1Cl (stereo not drawn) > 76.9 µM
O=C(CCCC(=O)OCC1CCCO1)OCC1CCCO1 (stereo not drawn) > 76.9 µM
N#Cc1ccc(CSc2nnc(NC(=O)C3CCCO3)s2)cc1 (stereo not drawn) > 76.9 µM
CCOC(=O)CSc1cccc2cccnc12 > 76.9 µM
Cc1cccc(NC(=O)Cn2cnc3ccc(S(=O)(=O)N4CCC(C)CC4)cc3c2=O)n1 > 76.9 µM
O=P(O)(O)CP(=O)(O)O > 76.9 µM
CCSc1nc2c(c(=O)[nH]1)C(c1cccnc1)C(C(=O)OC(C)C)=C(C)N2 (stereo not drawn) > 76.9 µM
Cc1nn(Cc2ccccc2)c(Cl)c1C(=O)OCc1nnc(-c2ccc(Cl)cc2)o1 > 76.9 µM
O=C(Nc1cccc(Cl)c1)OCc1ccccn1 > 76.9 µM
O=C(CN1C(=O)CC(c2ccccc2)=Nc2ccccc21)NCc1ccco1 > 76.9 µM
Cn1c(SCC(=O)N2CCOCC2)nnc1-c1cccc(NC(=O)c2ccccc2)c1 > 76.9 µM
COc1ccccc1NC(=O)C1=C(C)NC2=C(C(=O)CCC2)C1c1ccc2c(c1)OCO2 (stereo not drawn) > 76.9 µM
O=C(O)C1CCN(C(=O)c2scc3c2OCCO3)CC1 > 76.9 µM
CCOc1ccc(NC(=O)c2oc3ccccc3c2NC(=O)C(C)C)cc1 > 76.9 µM
c1ccc(-c2nnc3sc(-c4ccncc4)nn23)cc1 > 76.9 µM
CCOC(=O)N1CCC(NC(=O)Cc2ccc(-n3c(=O)[nH]c4ccccc4c3=O)cc2)CC1 > 76.9 µM
Cn1c(Cn2nnc3ccccc32)nnc1SCC(N)=O > 76.9 µM
CCOc1ccc(-c2[nH]ncc2Oc2ccccc2OCC)c(O)c1 > 76.9 µM
COc1ccc(Cn2nnnc2CN2CCOCC2)cc1 > 76.9 µM
CC(C)CSc1nnc2[nH]c(=O)cc(N)n12 > 76.9 µM
C=CCn1c(SCc2nc3ccccc3nc2C)nnc1-c1ccoc1C > 76.9 µM
Cc1n[nH]c(C)c1S(=O)(=O)N1CCc2ccccc21 > 76.9 µM
Oc1c(CN2CCCCC2)cc(COCc2ccccc2)c2cccnc12 > 76.9 µM
COc1ccc(CN2C(=O)CCC2(C)C(=O)NC2CCCCC2)c(OC)c1 (stereo not drawn) > 76.9 µM
O=C(C1Cc2ccccc2CN1S(=O)(=O)c1cccs1)N1CCCCC1 (stereo not drawn) > 76.9 µM
CN1C(=O)N(CN2CCCCC2)C2C1N(C)C(=O)N2CN1CCCCC1 (stereo not drawn) > 76.9 µM
c1coc(-c2nnc(-c3cccs3)o2)c1 > 76.9 µM
Cc1cc(=O)[nH]c2c(C)c(Cl)ccc12 > 76.9 µM
COCCNC(=O)C(c1ccc(F)cc1)N(CC1CCCO1)C(=O)CCC(=O)Nc1ccccn1 (stereo not drawn) > 76.9 µM
CCOc1ccc(NC(=O)CSc2n[nH]c(=O)n2-c2ccccc2)cc1 > 76.9 µM
COc1ccc(OC)c(NS(=O)(=O)c2cccs2)c1 > 76.9 µM
C/C(N)=C(/C#N)C(=O)COC(=O)CSc1ccccc1 > 76.9 µM
OC1CNCc2cc3c(cc21)OCCO3 (stereo not drawn) > 76.9 µM
COc1cccc(C(=O)Nc2nnc(C(C)C)s2)c1 > 76.9 µM
COc1ccc(OC)c(NC(=O)C2CC(=O)N(c3ccccc3)C2)c1 (stereo not drawn) > 76.9 µM
Cn1c(=O)c2c(nc3sccn32)n(C)c1=O > 76.9 µM
CC(C)(C)NC(=O)c1ccccc1-c1nc(-c2ccccc2Cl)no1 > 76.9 µM
C=CCOc1cccc(C2C(C(=O)c3ccc(C)o3)=C(O)C(=O)N2Cc2ccncc2)c1 (stereo not drawn) > 76.9 µM
COC(=O)c1c(NC(=O)CN2CCN(c3ccccc3)CC2)c2c(C)cccc2n1C > 76.9 µM
c1ccc(Nc2c3c(nc4ncnn24)CCC3)cc1 > 76.9 µM
COc1cccc(C2CC(c3ccccc3Cl)n3nnnc3N2)c1 (stereo not drawn) > 76.9 µM
O=S(=O)(c1ccc(-c2nnc(SCc3nnc(-c4ccccc4)o3)o2)cc1)N1CCCC1 > 76.9 µM
